Changes are numbered by the printed parent chain; changes in the protein carry UniProt numbers. This is one part of the list.
T1: RBFOX1 RRM RbFoxmut (Fox-RRM*) (Homo sapiens, UniProt Q9NWB1 109-208, R118D;E147R;N151S;E152T)
T1 sequence: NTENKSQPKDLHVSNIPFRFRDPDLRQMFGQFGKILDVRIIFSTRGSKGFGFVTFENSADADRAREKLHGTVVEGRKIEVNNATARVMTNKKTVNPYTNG

B1: ACUUAAU (DNA:RNA)
RNA: GGGAGACCGGAAUUCAGAUUGUCCACUUAAUUUAAAUCCCGUCGUAGCCACCA
DNA 1: CAATCTGAATTCCGGTCTCCC
DNA 2: TGGTGGCTACGACGGGATT
B2: CGCCCGC (DNA:RNA)
RNA: GGGAGACCGGAAUUCAGAUUGUCCCGCCCGCUUAAAUCCCGUCGUAGCCACCA
DNA 1: CAATCTGAATTCCGGTCTCCC
DNA 2: TGGTGGCTACGACGGGATT
B3: AACCGGG (DNA:RNA)
RNA: B2 RNA with C25A, G26A, C29G, C31G
DNA 1: CAATCTGAATTCCGGTCTCCC
DNA 2: TGGTGGCTACGACGGGATT
B4: GUGGCGG (DNA:RNA)
RNA: B2 RNA with C25G, G26U, C27G, C28G, C31G
DNA 1: CAATCTGAATTCCGGTCTCCC
DNA 2: TGGTGGCTACGACGGGATT
B5: AACCGCC (DNA:RNA)
RNA: B2 RNA with C25A, G26A, C29G, G30C
DNA 1: CAATCTGAATTCCGGTCTCCC
DNA 2: TGGTGGCTACGACGGGATT
B6: CGAACCA (DNA:RNA)
RNA: B2 RNA with C27A, C28A, G30C, C31A
DNA 1: CAATCTGAATTCCGGTCTCCC
DNA 2: TGGTGGCTACGACGGGATT
B7: GAAUCUG (DNA:RNA)
RNA: B1 RNA with A25G, C26A, U27A, A29C, A30U, U31G
DNA 1: CAATCTGAATTCCGGTCTCCC
DNA 2: TGGTGGCTACGACGGGATT
B8: ACGGCGG (DNA:RNA)
RNA: B1 RNA with U27G, U28G, A29C, A30G, U31G
DNA 1: CAATCTGAATTCCGGTCTCCC
DNA 2: TGGTGGCTACGACGGGATT
B9: ACAAUUG (DNA:RNA)
RNA: B1 RNA with U27A, U28A, A29U, A30U, U31G
DNA 1: CAATCTGAATTCCGGTCTCCC
DNA 2: TGGTGGCTACGACGGGATT
B10: GGACGGC (DNA:RNA)
RNA: B2 RNA with C25G, C27A, C29G
DNA 1: CAATCTGAATTCCGGTCTCCC
DNA 2: TGGTGGCTACGACGGGATT
B11: GAGGGGU (DNA:RNA)
RNA: B1 RNA with A25G, C26A, U27G, U28G, A29G, A30G
DNA 1: CAATCTGAATTCCGGTCTCCC
DNA 2: TGGTGGCTACGACGGGATT
B12: CUAACCG (DNA:RNA)
RNA: B2 RNA with G26U, C27A, C28A, G30C, C31G
DNA 1: CAATCTGAATTCCGGTCTCCC
DNA 2: TGGTGGCTACGACGGGATT
B13: UACUUAC (DNA:RNA)
RNA: B1 RNA with A25U, C26A, U27C, A29U, U31C
DNA 1: CAATCTGAATTCCGGTCTCCC
DNA 2: TGGTGGCTACGACGGGATT
B14: GUCAAAG (DNA:RNA)
RNA: B1 RNA with A25G, C26U, U27C, U28A, U31G
DNA 1: CAATCTGAATTCCGGTCTCCC
DNA 2: TGGTGGCTACGACGGGATT
B15: AAUAGUA (DNA:RNA)
RNA: B1 RNA with C26A, U28A, A29G, A30U, U31A
DNA 1: CAATCTGAATTCCGGTCTCCC
DNA 2: TGGTGGCTACGACGGGATT
B16: UCGACGA (DNA:RNA)
RNA: B2 RNA with C25U, G26C, C27G, C28A, C31A
DNA 1: CAATCTGAATTCCGGTCTCCC
DNA 2: TGGTGGCTACGACGGGATT
B17: CCUCCUA (DNA:RNA)
RNA: B2 RNA with G26C, C27U, G30U, C31A
DNA 1: CAATCTGAATTCCGGTCTCCC
DNA 2: TGGTGGCTACGACGGGATT
B18: UUGAAUC (DNA:RNA)
RNA: B1 RNA with A25U, C26U, U27G, U28A, A30U, U31C
DNA 1: CAATCTGAATTCCGGTCTCCC
DNA 2: TGGTGGCTACGACGGGATT
B19: CCAAUUG (DNA:RNA)
RNA: B1 RNA with A25C, U27A, U28A, A29U, A30U, U31G
DNA 1: CAATCTGAATTCCGGTCTCCC
DNA 2: TGGTGGCTACGACGGGATT
B20: ACUUCAU (DNA:RNA)
RNA: B1 RNA with A29C
DNA 1: CAATCTGAATTCCGGTCTCCC
DNA 2: TGGTGGCTACGACGGGATT
B21: CAUUCCG (DNA:RNA)
RNA: B1 RNA with A25C, C26A, A29C, A30C, U31G
DNA 1: CAATCTGAATTCCGGTCTCCC
DNA 2: TGGTGGCTACGACGGGATT
B22: ACAGUGC (DNA:RNA)
RNA: B1 RNA with U27A, U28G, A29U, A30G, U31C
DNA 1: CAATCTGAATTCCGGTCTCCC
DNA 2: TGGTGGCTACGACGGGATT
B23: GUACCUU (DNA:RNA)
RNA: B2 RNA with C25G, G26U, C27A, G30U, C31U
DNA 1: CAATCTGAATTCCGGTCTCCC
DNA 2: TGGTGGCTACGACGGGATT
B24: ACAUGCA (DNA:RNA)
RNA: B1 RNA with U27A, A29G, A30C, U31A
DNA 1: CAATCTGAATTCCGGTCTCCC
DNA 2: TGGTGGCTACGACGGGATT
B25: GUUGUAA (DNA:RNA)
RNA: B1 RNA with A25G, C26U, U28G, A29U, U31A
DNA 1: CAATCTGAATTCCGGTCTCCC
DNA 2: TGGTGGCTACGACGGGATT
B26: GGAGCCA (DNA:RNA)
RNA: B2 RNA with C25G, C27A, C28G, G30C, C31A
DNA 1: CAATCTGAATTCCGGTCTCCC
DNA 2: TGGTGGCTACGACGGGATT
B27: AAAGCAU (DNA:RNA)
RNA: B1 RNA with C26A, U27A, U28G, A29C
DNA 1: CAATCTGAATTCCGGTCTCCC
DNA 2: TGGTGGCTACGACGGGATT
B28: ACAUGCG (DNA:RNA)
RNA: B1 RNA with U27A, A29G, A30C, U31G
DNA 1: CAATCTGAATTCCGGTCTCCC
DNA 2: TGGTGGCTACGACGGGATT
B29: GAUAGCU (DNA:RNA)
RNA: B1 RNA with A25G, C26A, U28A, A29G, A30C
DNA 1: CAATCTGAATTCCGGTCTCCC
DNA 2: TGGTGGCTACGACGGGATT
B30: UGUGCUC (DNA:RNA)
RNA: B2 RNA with C25U, C27U, C28G, G30U
DNA 1: CAATCTGAATTCCGGTCTCCC
DNA 2: TGGTGGCTACGACGGGATT
B31: UUCGGGA (DNA:RNA)
RNA: B2 RNA with C25U, G26U, C28G, C29G, C31A
DNA 1: CAATCTGAATTCCGGTCTCCC
DNA 2: TGGTGGCTACGACGGGATT

Molecular target: T1, RBFOX1 RRM RbFoxmut (Fox-RRM*)
Assay: EMSA; HiTS-Eq, 1 nM pool, 10 min; buffer printed only for the single-RNA assays: 10 mM Tris pH 7.5, 150 mM NaCl, 3.4 mM EDTA, 0.001% NP-40, 30 C
Details: tags: His6 N-terminal (pET28a); label: 5' 32P
Outline: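 A pool of RNA with 7 randomized nucleotides, 5′-radiolabelled and with DNA-annealed flanks, was equilibrated at 1 nM for 10 min in 50 µL with purified RbFox RRM, wild type or mutant, across increasing protein concentrations. Free RNA was separated by 8% native PAGE, excised, reverse-transcribed, barcoded by PCR and sequenced. Relative association constants were obtained from read-count changes of each RNA species versus the control reaction and normalised to the cognate motif.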

Binder | binding signal
B1 | 0.0831 KA relative to UGCAUGU
B2 | 0.114 KA relative to UGCAUGU
B3 | 0.0473 KA relative to UGCAUGU
B4 | 0.102 KA relative to UGCAUGU
B5 | 0.0692 KA relative to UGCAUGU
B6 | 0.072 KA relative to UGCAUGU
B7 | 0.197 KA relative to UGCAUGU
B8 | 0.0875 KA relative to UGCAUGU
B9 | 0.0827 KA relative to UGCAUGU
B10 | 0.0886 KA relative to UGCAUGU
B11 | 0.0938 KA relative to UGCAUGU
B12 | 0.124 KA relative to UGCAUGU
B13 | 0.103 KA relative to UGCAUGU
B14 | 0.0829 KA relative to UGCAUGU
B15 | 0.151 KA relative to UGCAUGU
B16 | 0.0457 KA relative to UGCAUGU

Binder | binding signal
B17 | 0.0593 KA relative to UGCAUGU
B18 | 0.374 KA relative to UGCAUGU
B19 | 0.0976 KA relative to UGCAUGU
B20 | 0.0922 KA relative to UGCAUGU
B21 | 0.0958 KA relative to UGCAUGU
B22 | 0.111 KA relative to UGCAUGU
B23 | 0.0809 KA relative to UGCAUGU
B24 | 0.223 KA relative to UGCAUGU
B25 | 0.136 KA relative to UGCAUGU
B26 | 0.0854 KA relative to UGCAUGU
B27 | 0.0838 KA relative to UGCAUGU
B28 | 0.139 KA relative to UGCAUGU
B29 | 0.0865 KA relative to UGCAUGU
B30 | 0.0915 KA relative to UGCAUGU
B31 | 0.0532 KA relative to UGCAUGU

From PMC9911399, “Two distinct binding modes provide the RNA-binding protein RbFox with extraordinary sequence specificity”
